About 550 (1.1%) of roughly 48,000 compounds were called active. Roughly 4% stayed inconclusive and do not appear here. Rule as the data show it: active = potency below about 15 µM; inconclusive = mostly about 16 µM to 33 µM; inactive = weaker than that. This is one part of the list.
target: Lysosomal acid glucosylceramidase (Homo sapiens) (UniProt P04062); experiment: Glucocerebrosidase; details: purified enzyme, resorufin glucoside fluorescence (screen aimed at inhibitors), 20 min;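 also: the screen sought inhibitors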
UniProt P04062, sequence (P04062 whole entry, looked up): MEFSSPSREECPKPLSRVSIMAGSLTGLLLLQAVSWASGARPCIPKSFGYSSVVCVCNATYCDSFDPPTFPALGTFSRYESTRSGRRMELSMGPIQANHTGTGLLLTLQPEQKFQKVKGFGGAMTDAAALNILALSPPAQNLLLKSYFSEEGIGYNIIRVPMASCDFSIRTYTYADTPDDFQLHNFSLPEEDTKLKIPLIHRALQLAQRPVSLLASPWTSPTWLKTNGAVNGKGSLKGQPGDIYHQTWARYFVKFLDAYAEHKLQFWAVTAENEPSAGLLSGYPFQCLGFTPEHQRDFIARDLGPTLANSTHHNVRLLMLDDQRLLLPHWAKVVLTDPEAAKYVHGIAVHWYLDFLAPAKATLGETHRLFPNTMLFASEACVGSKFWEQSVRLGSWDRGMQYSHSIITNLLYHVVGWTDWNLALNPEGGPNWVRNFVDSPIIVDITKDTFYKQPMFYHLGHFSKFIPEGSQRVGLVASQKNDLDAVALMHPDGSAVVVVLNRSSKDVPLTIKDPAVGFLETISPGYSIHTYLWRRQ
Procedure, shortened: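 Compounds titrated against 0.2 nM normal enzyme, 30 uM resorufin beta-D-glucopyranoside substrate, citrate/phosphate buffer with taurocholate and tween-20, pH 5.9. Reaction ran 20 min at room temperature; fluorescence (Ex 548/Em 600) gave AC50.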
Potency is read from the fitted curve at half-maximal effect.

| SMILES | Potency |
| --- | --- |
| N#CC1=C(N)Oc2c(c(=O)oc3ccccc23)C1c1cccnc1 (stereo not drawn) | inactive: > 76.9 µM |
| Cc1nn(C)c(C)c1P(=S)(c1c(C)nn(C)c1C)N(C)C | inactive: > 76.9 µM |
| O[C@@H]1CCCC[C@H]1N1CCC(c2ccccc2)CC1 | inactive: > 76.9 µM |
| O=C(COc1ccccc1)N1CCN(C/C=C/c2ccccc2)CC1 | inactive: > 76.9 µM |
| CCC(=NCC1CCCO1)c1c(O)[nH]c(=O)[nH]c1=O (stereo not drawn) | inactive: > 76.9 µM |
| O=C(c1ccccc1)c1cn(CC(=O)N2CCOCC2)c2ccccc12 | inactive: > 76.9 µM |
| COC(=O)N(c1ccccc1)P1(=S)OCCO1 | inactive: > 76.9 µM |
| CCN(CC)CCCN=C(C)c1c(O)n(-c2ccccc2)c(=O)[nH]c1=O | inactive: > 76.9 µM |
| Cc1[nH]c2ccccc2c1C1=CCNCC1 | inactive: > 76.9 µM |
| c1cncc(CNC2=NCCCCC2)c1 | inactive: > 76.9 µM |
| CC12CN3CC(C)(CN(C1)C3c1cccs1)C2O (stereo not drawn) | inactive: > 76.9 µM |
| Cc1cc(N2C(=O)CC(N3CCC(n4c(=O)[nH]c5ccccc54)CC3)C2=O)no1 (stereo not drawn) | inactive: > 76.9 µM |
| CCOP(=O)(C#CC(C)(C)C)C(O)(c1ccccc1)C(F)(F)F (stereo not drawn) | inactive: > 76.9 µM |
| CCCN1CCC2(CC1)NC(CO)(CO)CO2 | inactive: > 76.9 µM |
| O=C(c1cc(Br)ccc1Cl)N1CCC2(CC1)OCCO2 | inactive: > 76.9 µM |
| CCOC(=O)c1c(-c2ccccc2)oc2ccc(OC(=O)N(C)C)cc12 | inactive: > 76.9 µM |
| CCN1CCC2(CCNC2)C1 (stereo not drawn) | inactive: > 76.9 µM |
| O=C1CC(N2CCC(n3c(=O)[nH]c4ccccc43)CC2)C(=O)N1c1ccc(F)cc1 (stereo not drawn) | inactive: > 76.9 µM |
| O=C(NC[P+](=O)O)OCc1ccccc1 | inactive: > 76.9 µM |
| O=C(Cc1ccccc1)N1CCN(Cc2ccccn2)CC1 | inactive: > 76.9 µM |
| COc1ccc2c(c1)CC1(CN2C)C(=O)NC(=O)N(c2ccc(F)cc2)C1=O (stereo not drawn) | inactive: > 76.9 µM |
| Cc1cccc(N2C(=O)NC(=O)C3(Cc4cc(C)ccc4N(C)C3)C2=O)c1 (stereo not drawn) | inactive: > 76.9 µM |
| Cc1ccc2c(c1)C1CN(C)CCC1N2C(=O)c1ccc(Br)o1 (stereo not drawn) | inactive: > 76.9 µM |
| Cn1c[n+](C)cc1C(O)c1ccccc1 (stereo not drawn) | inactive: > 76.9 µM |

| SMILES | Potency |
| --- | --- |
| Cc1ccc2c(c1)CC1(CN2C)C(=O)NC(=O)N(c2ccc(C)c(C)c2)C1=O (stereo not drawn) | inactive: > 76.9 µM |
| Cc1onc(-c2ccccc2)c1C(=O)N1CCC2(CC1)OCCO2 | inactive: > 76.9 µM |
| CC1(C)N(O)C2CCCCC2N1O (stereo not drawn) | inactive |
| O/N=C1/C(=C\c2ccccc2)N2CCC1CC2 | inactive: > 76.9 µM |
| COC(=O)CC1(Cc2ccccc2)C(=O)NC(=O)NC1=O | inactive: > 76.9 µM |
| CCCc1nc2ccccc2c(=O)n1-c1cccc(OC)c1 | inactive: > 76.9 µM |
| CCOC(=O)CC1=C(C(=O)OCC)C2(C(=O)Nc3ccccc32)C(C#N)=C(N)O1 (stereo not drawn) | inactive: > 76.9 µM |
| CCCCn1c(O)c(C=NC2CC3CCC2(C)C3(C)C)c(=O)[nH]c1=O (stereo not drawn) | inactive: > 76.9 µM |
| O=C(COc1ccc(Cl)cc1)NC1CN2CCC1CC2 (stereo not drawn) | inactive: > 76.9 µM |
| COc1ccc(C(CC(=O)N2CCC3(CC2)OCCO3)NS(=O)(=O)c2ccc(F)cc2)cc1 (stereo not drawn) | inactive: > 76.9 µM |
| N#Cc1ccc(N2CCNCC2)c(F)c1 | inactive: > 76.9 µM |
| Cc1ccc2c(c1)CC1(CN2C)C(=O)NC(=O)N(c2ccccc2C)C1=O (stereo not drawn) | inactive: > 76.9 µM |
| O=C(c1cc2ccccn2n1)N1CCC2(CC1)OCCO2 | inactive: > 76.9 µM |
| Cc1nn(-c2ccccc2)c2c1CC1(C(=O)N(C)C(=O)N(C)C1=O)C1CCCCN21 (stereo not drawn) | inactive: > 76.9 µM |
| Cc1ccc(-n2c(O)c(C=NCc3cccnc3)c(=O)[nH]c2=O)cc1C | inactive: > 76.9 µM |
| CCCC(=O)c1c(O)[nH]c(=O)[nH]c1=O | inactive: > 76.9 µM |
| COCCCn1c(N)c(C(=O)OC(C)COC)c2nc3ccccc3nc21 (stereo not drawn) | inactive: > 76.9 µM |
| CCSP1(=S)N=C(N2CCOCC2)C(C#N)=C2CCCN21 (stereo not drawn) | inactive: > 76.9 µM |
| NCCc1ccc(O)cc1 | inactive: > 76.9 µM |
| CCCS(=O)(=O)N1CCC(C(=O)N2CCC3(CC2)OCCO3)CC1 | inactive: > 76.9 µM |
| COc1ccccc1N1C(=O)NC(=O)C2(Cc3cc(C)ccc3N(C)C2)C1=O (stereo not drawn) | inactive: > 76.9 µM |
| CCOc1cccc(C2NCc3ccccc3-n3cccc32)c1O (stereo not drawn) | inactive: > 76.9 µM |
| CCCCn1c(O)c(C(C)=NCc2ccc(F)cc2)c(=O)[nH]c1=O | inactive: > 76.9 µM |
| CCC1CCCCN1P(=O)(c1ccc(C)o1)C(C)(C)C (stereo not drawn) | inactive: > 76.9 µM |

| SMILES | Potency |
| --- | --- |
| CCC(=NCc1ccco1)c1c(O)n(-c2ccc(OC)cc2)c(=O)[nH]c1=O | inactive: > 76.9 µM |
| O=C(Cc1ccccc1)N1CCN(CC2CC=CCC2)CC1 (stereo not drawn) | inactive: > 76.9 µM |
| CN(C)c1ccc(P(=S)(N(C)C)N(C)C)cc1 | inactive: > 76.9 µM |
| CCOC(=O)C1C2NC(=O)N(Cc3ccccc3)C1(C)Oc1c(OC)cccc12 (stereo not drawn) | inactive: > 76.9 µM |
| Cc1cccc(N2C(=O)CC(=O)NC2=O)c1 | inactive: > 76.9 µM |
| O=C(c1cc(-c2cccnc2)nc2ccc(Cl)cc12)N1CCC2(CC1)OCCO2 | inactive: > 76.9 µM |
| O=c1[nH]c(=O)n(Cc2ccco2)c(O)c1C=NCc1cccs1 | inactive: > 76.9 µM |
| CCOCCCNC(=O)CN1C2CCC1CC(O)(c1ccc(OC)cc1)C2 (stereo not drawn) | inactive: > 76.9 µM |
| CC(C)NS(=O)(=O)c1ccc(OCC(=O)N2CCN(Cc3ccccc3)CC2)cc1 | inactive: > 76.9 µM |
| CN1C(=O)C(Cc2c[nH]c3ccccc23)C(=O)N(C)C1=O | inactive: > 76.9 µM |
| CC(C(N)=O)N1CC(c2ccccc2)CC1=O (stereo not drawn) | inactive: > 76.9 µM |
| CC(C)Oc1ccc(Cc2c(O)[nH]c(=O)[nH]c2=O)cc1 | inactive: > 76.9 µM |
| CCOC(=O)c1c(C)c(C(=O)N2CCC3(CC2)OCCO3)c(C)n1CC | inactive: > 76.9 µM |
| CCOC(=O)C(O)(c1ccc(N)c(OC)c1)C(F)(F)F (stereo not drawn) | inactive: > 76.9 µM |
| CN1CCN(C(=O)COc2ccc(-c3nc4ccccc4s3)cc2)CC1 | inactive |
| CC(=O)C1=C(C)OC(N)=C(C(=O)OC(C)C)C12C(=O)Nc1ccccc12 (stereo not drawn) | inactive: > 76.9 µM |
| COc1ccc(N2CCN(CCCN)CC2)cc1 | inactive: > 76.9 µM |
| CC(C(=O)c1c[nH]c2ccccc12)N1CCc2ccccc2C1 (stereo not drawn) | inactive: > 76.9 µM |
| C[N+]12CN3CN(CN(C3)C1)C2 | inactive: > 76.9 µM |
| C=CCn1c(O)c(C(C)=Nc2ccc(N(C)C)cc2)c(=O)[nH]c1=O | inactive: > 76.9 µM |
| CN(C)CCN=Cc1c(O)n(C2CCCCCC2)c(=O)[nH]c1=O | inactive: > 76.9 µM |
| CC(=NCC1CCCO1)c1c(O)n(C)c(=O)n(C)c1=O (stereo not drawn) | inactive: > 76.9 µM |
| O=c1[nH]c(=O)n(Cc2ccco2)c(O)c1C=NCc1ccco1 | inactive: > 76.9 µM |
| C=Cn1ccnc1P(=S)(c1ccn(C)c1)c1nccn1C=C | inactive: > 76.9 µM |

| SMILES | Potency |
| --- | --- |
| COc1ccc(-n2c(=O)[nH]c3ccccc3c2=O)c(OC)c1 | inactive: > 76.9 µM |
| OC12CCCCC1C(c1ccccc1)NCC2 (stereo not drawn) | inactive: > 76.9 µM |
| COc1ccc(-c2nc(CSCC(=O)N3CCC4(CC3)OCCO4)c(C)o2)cc1OC | inactive: > 76.9 µM |
| CC(=O)c1c(O)n(C2CCCCCC2)c(=O)[nH]c1=O | inactive: > 76.9 µM |
| Cc1nc2cc(C(F)(F)F)ccc2n1C1CCN(Cc2nnnn2Cc2cccs2)CC1 | inactive: > 76.9 µM |
| C=Cn1ccnc1P(=S)(c1cc(N(CC)CC)ns1)c1nccn1C=C | inactive: > 76.9 µM |
| O=C1NC(=O)C2(Cc3ccccc3N3CCCC32)C(=O)N1c1ccccc1 (stereo not drawn) | inactive: > 76.9 µM |
| CCCC1=C(C(=O)OCC)C2(C(=O)Nc3ccc(C)cc32)C(C#N)=C(N)O1 (stereo not drawn) | inactive: > 76.9 µM |
| O=C(Nc1cccc(OC(=O)N2CCOCC2)c1)N1CCOCC1 | inactive: > 76.9 µM |
| Cc1ccc(S(=O)(=O)NC(CC(=O)N2CCC3(CC2)OCCO3)c2ccco2)cc1 (stereo not drawn) | inactive: > 76.9 µM |
| CCOP(=S)(OCC)c1ccc(N(C)C)cc1 | inactive: > 76.9 µM |
| CCOC(=O)C1=C(N)OC(C)=C(C(=O)OCCOC)C12C(=O)Nc1ccccc12 (stereo not drawn) | inactive: > 76.9 µM |
| CC12CN3CC(C)(CN(C1)C3c1ccncc1)C2=O (stereo not drawn) | inactive: > 76.9 µM |
| O=C1CC(=O)N(c2cccc(Cl)c2)C(=O)N1 | inactive: > 76.9 µM |
| CN(C)CCc1nc2ccccc2c(=O)n1-c1ccccc1 | inactive: > 76.9 µM |
| COc1cc(CN2C(=O)NC(=O)C3(Cc4cc(C)ccc4N(C)C3)C2=O)cc(OC)c1 (stereo not drawn) | inactive: > 76.9 µM |
| CC(=O)C1C2c3ccccc3OC1(C)N=c1s/c(=C/c3cnn(C)c3)c(=O)n12 (stereo not drawn) | inactive: > 76.9 µM |
| CC(C)OCCCNC(=O)c1c(N)n(Cc2cccs2)c2nc3ccccc3nc12 | inactive: > 76.9 µM |
| CC#CP(=O)(OCC)C(O)(c1ccccc1)C(F)(F)F (stereo not drawn) | inactive: > 76.9 µM |
| CCN(CC)CCCN=Cc1c(O)n(-c2ccccc2F)c(=O)[nH]c1=O | inactive: > 76.9 µM |
| OC1(c2ccccc2F)CC2CCC(C1)N2CCN1CCOCC1 (stereo not drawn) | inactive: > 76.9 µM |
